From the supplement of paper PMC12217912
Some of the results follow. Sequences were assembled here from the parent chain. Inactive controls read about 0.05.

B1: TEV protease; numbered along this chain (parent)
chain: MGESLFKGPRDYNPISSSICHLTNESDGHTTSLYGIGFGPFIITNKHLFRRNNGTLVVQSLHGVFKVKDTTTLQQHLVDGRDMIIIRMPKDFPPFPQKLKFREPQREERICLVTTNFQTKSMSSMVSDTSCTFPSGDGIFWKHWIQTKDGQCGSPLVSTRDGFIVGIHSASNFTNTNNYFTSVPKNFMELLTNQEAQQWVSGWRLNADSVLWGGHKVFMVKPEEPFQPVKEATQL

Variants of: B1
Assay: raw area under fraction-flipped curve 0-4 h after induction (AUC4h, not background-subtracted), DNA-recorder readout of cleavage of the substrate (dimensionless); higher = more cleavage of the substrate by the protease variant
Conditions: temperature: 34 °C; time window: 0-4 h after rhamnose induction
Method: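 In vivo DNA recorder in E. coli TOP10(DE3) ΔrhaA at 34 °C. Each TEVp single-site mutant (parent TEVp 0) is paired with a single-site variant of the 7-mer TEVs (canonical ENLYFQ|S). The substrate sits between flexible linkers in a Bxb1-sfGFP-TEVs-SsrA fusion, so cleavage stabilises Bxb1 and speeds flipping of a recombination array, read by NGS. The value is the raw area under the fraction-flipped curve over 0-4 h after rhamnose induction (AUC4h), with ≥20 reads per time point. It is not background-subtracted; inactive controls average about 0.047.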
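Further: Bxb1 expression induced with 0.2% (w/v) L-rhamnose at OD600 near 0.5, cultures sampled hourly, flipped fraction per protease–substrate barcode pair counted by paired-end Illumina sequencing.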

Variant	area with substrate ENLYFAS	area with substrate ENLYFCS	area with substrate ENLYFES	area with substrate ENLYFFS	area with substrate ENLYFGS	area with substrate ENLYFIS	area with substrate ENLYFKS	area with substrate ENLYFLS	area with substrate ENLYFMS	area with substrate ENLYFPS	area with substrate ENLYFRS	area with substrate ENLYFSS	area with substrate ENLYFTS	area with substrate ENLYFVS	area with substrate ENLYFYS	area with substrate ENLYFNS	area with substrate ENLYFDS	area with substrate ENLYFHS	area with substrate ENLYFWS
P104R	0.0497	0.0534	0.0537	0.0716	0.0618	0.0629	0.0583	0.0395	0.0557	0.0566	0.041	0.0435	0.0475	0.054	0.0506				
P104H	0.0453	0.0707	0.0428	0.0581	0.0335	0.0459	0.0497			0.0541	0.0431		0.0573			0.0546			
G80V	0.0574	0.0537	0.0625	0.0651	0.0495	0.0514	0.062		0.0742	0.0551		0.0611	0.0486	0.0396	0.0556		0.049	0.0749	0.0597
G80D	0.0511	0.0594	0.0844	0.0669	0.0622	0.0575	0.0627		0.0786		0.0632		0.0828			0.0674			0.0609
G80M	0.0813		0.0634	0.0556		0.0521				0.0508	0.0548	0.0585	0.0602	0.0517	0.0568			0.0627	0.0681
G80A	0.0625		0.0601	0.0431		0.0587	0.076	0.0767	0.0685	0.0587			0.0629		0.0571	0.0608			0.0735
G80Q	0.0559	0.0489	0.056	0.0669	0.0609	0.0594	0.0621	0.0605	0.0614	0.0571	0.0599	0.0631	0.0673	0.0527		0.0771	0.0623	0.0613	0.0588
G80W	0.0454	0.0659	0.0608	0.0668	0.0613	0.0524	0.0523		0.0653	0.06	0.059	0.0546	0.0545	0.0486	0.043	0.0675	0.0246	0.0581	0.0699
F101N	0.0457		0.0436			0.0571	0.0829	0.051	0.0494	0.0541		0.0485	0.0438	0.0388		0.0365	0.042	0.0509	
F101W	0.0678	0.0658		0.0436		0.0679	0.0456		0.0575	0.0723	0.059		0.0611		0.0608	0.0727			0.0547
R102I	0.0167	0.0485	0.0358	0.0513	0.0377	0.051	0.0397		0.0422	0.0492	0.0491		0.0441	0.0549	0.0465	0.0442	0.0485	0.0341	0.0534
R102G	0.0572	0.0336		0.0427		0.0478	0.0406		0.0508	0.0447	0.0521	0.0486	0.0466	0.0562		0.0642	0.0508	0.042	
R102Y	0.0489			0.0361		0.0363		0.0425		0.0442	0.0561			0.0423	0.0257				
F65A	0.0628	0.0543	0.0606	0.0504	0.0523	0.048	0.0687		0.0724	0.0487	0.0525	0.0556	0.0685	0.0536	0.0474	0.0545	0.0646		0.0656
T72E	0.0637		0.0743			0.0414					0.0548		0.074	0.0458					
T72K	0.0677	0.0697	0.0632	0.0701	0.0569	0.0554	0.0642	0.056	0.0638	0.0591	0.0635		0.0656	0.062	0.0561	0.0638	0.0658		0.0575
T72F	0.0599	0.0658		0.0691		0.0425	0.0725	0.0501		0.0591	0.0582		0.0479	0.0491	0.0644	0.0565	0.0568	0.0532	0.0534
M88V	0.062	0.0434	0.0373				0.0585		0.0686	0.0473		0.0586	0.0536	0.0528	0.0747	0.0179	0.0391		0.0549
M88N	0.0231		0.0589	0.0612	0.0393	0.053		0.0519		0.0536	0.0219	0.0452	0.0483	0.0523	0.0533	0.0572		0.0628	0.0435
M88P	0.0461	0.0571		0.0567		0.0449	0.0487	0.0562	0.0632	0.0529	0.0596	0.0683	0.0355						
M88F	0.0563			0.0589	0.048	0.059			0.0589		0.0608	0.043	0.0471		0.0562		0.0522	0.0506	
M88R	0.0396					0.0413	0.0575	0.0412	0.0479			0.0546	0.0431				0.0466		
L73V	0.0605	0.0518	0.0674	0.0611		0.0565	0.0382	0.0827	0.0639	0.0531	0.0537	0.054	0.0569		0.0575	0.0672	0.0646		0.0353
L77K	0.0555	0.0462				0.0546	0.0557		0.051			0.0625	0.0656	0.0356	0.075	0.0722	0.0327	0.0251	0.0242
L77F	0.0555	0.0426	0.058	0.0704		0.0639	0.069		0.0522	0.0596		0.0574	0.0565	0.0536	0.044	0.054	0.0571	0.0852	0.0522
